Reference: the supplement of paper PMC8728848
The other results are listed elsewhere or left out.

Key:
Assay in all cases: glycan array binding signal (z-score within array); higher = stronger binding
Conditions in all cases: glycan notation: IUPAC condensed, linker removed
[1] = molecular target: Gal(b1-3)GlcNAc(b1-2)Man(a1-3)[Gal(b1-3)GlcNAc(b1-2)Man(a1-6)]Man(b1-4)GlcNAc(b1-4)[Fuc(a1-6)]GlcNAc
Outline: (§1)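 Negative Z-scores can be read as non-binding. The Z-score is calculated within each array and then averaged across arrays of one protein sequence at different concentrations or buffers and across linkers. Arrays, 3228 in all, were curated from the Consortium for Functional Glycomics database and kept only where the protein sequence was available.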

[2] = molecular target: Gal(b1-3)GlcNAc(b1-2)Man(a1-3)[GlcNAc(b1-4)][Gal(b1-3)GlcNAc(b1-2)Man(a1-6)]Man(b1-4)GlcNAc(b1-4)GlcNAc
Outline: as §1

[3] = molecular target: Gal(b1-3)GlcNAc(b1-2)[Gal(b1-3)GlcNAc(b1-6)]Man(a1-6)[Gal(b1-3)GlcNAc(b1-2)Man(a1-3)]Man(b1-4)GlcNAc(b1-4)GlcNAc
Outline: as §1

[4] = molecular target: Gal(b1-3)GlcNAc(b1-3)Gal(b1-3)GlcNAc
Outline: as §1

[5] = molecular target: Gal(b1-3)GlcNAc(b1-3)Gal(b1-4)Glc
Outline: as §1

[6] = molecular target: Gal(b1-3)GlcNAc(b1-3)Gal(b1-4)GlcNAc
Outline: as §1

[7] = molecular target: Gal(b1-3)GlcNAc(b1-3)Gal(b1-4)GlcNAc(b1-2)Man(a1-3)[Gal(b1-3)GlcNAc(b1-3)Gal(b1-4)GlcNAc(b1-2)Man(a1-6)]Man(b1-4)GlcNAc(b1-4)GlcNAc
Outline: as §1

[8] = molecular target: Gal(b1-3)GlcNAc(b1-3)Gal(b1-4)GlcNAc(b1-2)[Gal(b1-3)GlcNAc(b1-3)Gal(b1-4)GlcNAc(b1-6)]Man(a1-6)[Gal(b1-3)GlcNAc(b1-3)Gal(b1-4)GlcNAc(b1-2)Man(a1-3)]Man(b1-4)GlcNAc(b1-4)[Fuc(a1-6)]GlcNAc
Outline: as §1

[9] = molecular target: Gal(b1-3)GlcNAc(b1-3)Gal(b1-4)GlcNAc(b1-3)Gal(b1-4)GlcNAc(b1-2)[Gal(b1-3)GlcNAc(b1-3)Gal(b1-4)GlcNAc(b1-3)Gal(b1-4)GlcNAc(b1-6)]Man(a1-6)[Gal(b1-3)GlcNAc(b1-3)Gal(b1-4)GlcNAc(b1-3)Gal(b1-4)GlcNAc(b1-2)Man(a1-3)]Man(b1-4)GlcNAc(b1-4)[Fuc(a1-6)]GlcNAc
Outline: as §1

[10] = molecular target: Gal(b1-3)GlcNAc(b1-3)Gal(b1-4)GlcNAc(b1-6)[Gal(b1-3)GlcNAc(b1-3)]Gal(b1-4)Glc
Outline: as §1

[11] = molecular target: Gal(b1-3)GlcNAc(b1-3)Gal(b1-4)[Fuc(a1-3)]GlcNAc
Outline: as §1

[12] = molecular target: Gal(b1-3)GlcNAc(b1-3)Gal(b1-4)[Fuc(a1-3)]GlcNAc(b1-6)[Gal(b1-3)GlcNAc(b1-3)]Gal(b1-4)Glc
Outline: as §1

[13] = molecular target: Gal(b1-3)GlcNAc(b1-3)GalNAc
Outline: as §1

[14] = molecular target: Gal(b1-3)GlcNAc(b1-6)Gal(b1-4)GlcNAc
Outline: as §1

[15] = molecular target: Gal(b1-3)GlcNAc(b1-6)GalNAc
Outline: as §1

[16] = molecular target: Gal(b1-3)GlcNAc(b1-6)[Gal(b1-3)]GalNAc
Outline: as §1

Gal(b1-3)GlcNAc6S = molecular target: Gal(b1-3)GlcNAc6S
Outline: as §1

[17] = molecular target: Gal(b1-3)[Fuc(a1-4)]GlcNAc
Outline: as §1

[18] = molecular target: Gal(b1-3)[Fuc(a1-4)]GlcNAc(b1-2)Man
Outline: as §1

[19] = molecular target: Gal(b1-3)[Fuc(a1-4)]GlcNAc(b1-2)Man(a1-3)[Gal(b1-3)[Fuc(a1-4)]GlcNAc(b1-2)Man(a1-6)]Man(b1-4)GlcNAc(b1-4)[Fuc(a1-6)]GlcNAc
Outline: as §1

[20] = molecular target: Gal(b1-3)[Fuc(a1-4)]GlcNAc(b1-3)Gal(b1-3)[Fuc(a1-4)]GlcNAc
Outline: as §1

[21] = molecular target: Gal(b1-3)[Fuc(a1-4)]GlcNAc(b1-3)Gal(b1-4)[Fuc(a1-3)]GlcNAc
Outline: as §1

[22] = molecular target: Gal(b1-3)[Fuc(a1-4)]GlcNAc(b1-6)GalNAc
Outline: as §1

[23] = molecular target: Gal(b1-3)[GlcNAc(b1-6)]GalNAc
Outline: as §1

[24] = molecular target: Gal(b1-3)[Neu5Ac(a2-6)]GalNAc
Outline: as §1

[25] = molecular target: Gal(b1-3)[Neu5Ac(a2-6)]GlcNAc(b1-4)Gal(b1-4)Glc
Outline: as §1

[26] = molecular target: Gal(b1-3)[Neu5Ac(b2-6)]GalNAc
Outline: as §1

Gal(b1-4)Gal = molecular target: Gal(b1-4)Gal
Outline: as §1

[27] = molecular target: Gal(b1-4)GalNAc(a1-3)[Fuc(a1-2)]Gal(b1-4)GlcNAc
Outline: as §1

[28] = molecular target: Gal(b1-4)GalNAc(b1-3)[Fuc(a1-2)]Gal(b1-4)GlcNAc
Outline: as §1

Gal(b1-4)Glc = molecular target: Gal(b1-4)Glc
Outline: as §1

Gal(b1-4)Glc6S = molecular target: Gal(b1-4)Glc6S
Outline: as §1

Gal(b1-4)GlcNAc = molecular target: Gal(b1-4)GlcNAc
Outline: as §1

[29] = molecular target: Gal(b1-4)GlcNAc(a1-6)Gal(b1-4)GlcNAc
Outline: as §1

Gal(b1-4)GlcNAc(b1-2)Man = molecular target: Gal(b1-4)GlcNAc(b1-2)Man
Outline: as §1

[30] = molecular target: Gal(b1-4)GlcNAc(b1-2)Man(a1-3)Man(b1-4)GlcNAc(b1-4)GlcNAc
Outline: as §1

[31] = molecular target: Gal(b1-4)GlcNAc(b1-2)Man(a1-3)[Gal(b1-4)GlcNAc(b1-2)Man(a1-6)]Man(b1-4)GlcNAc(b1-4)GlcNAc
Outline: as §1

B1: PX9937D-bvu-500-26-500 (Bacteroides vulgatus) (protein)
chain: DPVSDITDLNYWKTPEQFDSFVFGLHSRFRSHSWNMFLLGEARSDVFGGIPFGGEATQGMERFPYNTLNAENPGISGFGDLYQNINQMNLFISRTLHTDVLTESARNYYLGQVYGLRAYYMYQLYRSWGDVVFTEEPSLGFEVGKLAKAATPAAEIFEQVKKDIESSLSYFGSDYTIKEKKSLWSKAATLMLKADVYLWSAHRDGGEGDARTAKNALVDIQNNISRSNLDLMDTYQGVFAYDNKGNKEIIFTIHNELFEYNLWNGNNDLFPQADYLGKFYNADGTLINTSVENNFGIMRLMVKLENFKKFLPGDTRRDVTLKDVYNKVENGKLELVGVYPHKYWGVMNGSTRVRCDDYPIYRYSDLLLMLAEAKVLLGEDPATEINRVRRRAFGDAYDASTVGFPNQEVDKRPADAVLQERLFEFMLEGKRWYDLRRFGDSYVLDYTPAEPARLLWPINQGALTNNPLLKQTVGY
glycan array binding signal (z-score) [1]: -0.142
glycan array binding signal (z-score) [2]: 0.988
glycan array binding signal (z-score) [3]: 0.146
glycan array binding signal (z-score) [4]: -0.129
glycan array binding signal (z-score) [5]: -0.26
glycan array binding signal (z-score) [6]: -0.572
glycan array binding signal (z-score) [7]: -0.187
glycan array binding signal (z-score) [8]: 1.67
glycan array binding signal (z-score) [9]: 0.56
glycan array binding signal (z-score) [10]: -0.27
glycan array binding signal (z-score) [11]: -0.059
glycan array binding signal (z-score) [12]: -0.415
glycan array binding signal (z-score) [13]: -0.201
glycan array binding signal (z-score) [14]: -0.622
glycan array binding signal (z-score) [15]: -0.245
glycan array binding signal (z-score) [16]: 0.148
glycan array binding signal (z-score) (Gal(b1-3)GlcNAc6S): -0.293
glycan array binding signal (z-score) [17]: -0.045
glycan array binding signal (z-score) [18]: 0.015
glycan array binding signal (z-score) [19]: -0.482
glycan array binding signal (z-score) [20]: -0.373
glycan array binding signal (z-score) [21]: -0.383
glycan array binding signal (z-score) [22]: 0.041
glycan array binding signal (z-score) [23]: 0.026
glycan array binding signal (z-score) [24]: -0.258
glycan array binding signal (z-score) [25]: -0.143
glycan array binding signal (z-score) [26]: 0.063
glycan array binding signal (z-score) (Gal(b1-4)Gal): -0.328
glycan array binding signal (z-score) [27]: -0.279
glycan array binding signal (z-score) [28]: -0.3
glycan array binding signal (z-score) (Gal(b1-4)Glc): 0.83
glycan array binding signal (z-score) (Gal(b1-4)Glc6S): 0.048
glycan array binding signal (z-score) (Gal(b1-4)GlcNAc): 0.081
glycan array binding signal (z-score) [29]: -0.246
glycan array binding signal (z-score) (Gal(b1-4)GlcNAc(b1-2)Man): 0.153
glycan array binding signal (z-score) [30]: -0.126
glycan array binding signal (z-score) [31]: 0.209
